Data on 9 variants can be found in the supplement of paper PMC12217912.

First the molecules themselves.
B1: TEV protease; numbered along this chain (parent)
chain: MGESLFKGPRDYNPISSSICHLTNESDGHTTSLYGIGFGPFIITNKHLFRRNNGTLVVQSLHGVFKVKDTTTLQQHLVDGRDMIIIRMPKDFPPFPQKLKFREPQREERICLVTTNFQTKSMSSMVSDTSCTFPSGDGIFWKHWIQTKDGQCGSPLVSTRDGFIVGIHSASNFTNTNNYFTSVPKNFMELLTNQEAQQWVSGWRLNADSVLWGGHKVFMVKPEEPFQPVKEATQL

The variants in this assay derive from B1. In words: raw area under fraction-flipped curve 0-4 h after induction (AUC4h, not background-subtracted), DNA-recorder readout of cleavage of the substrate (dimensionless); higher = more cleavage of the substrate by the protease variant. Particulars: temperature: 34 °C; time window: 0-4 h after rhamnose induction. On the procedure: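 In vivo DNA recorder in E. coli TOP10(DE3) ΔrhaA at 34 °C. Each TEVp single-site mutant (parent TEVp 0) is paired with a single-site variant of the 7-mer TEVs (canonical ENLYFQ|S). The substrate sits between flexible linkers in a Bxb1-sfGFP-TEVs-SsrA fusion, so cleavage stabilises Bxb1 and speeds flipping of a recombination array, read by NGS. The value is the raw area under the fraction-flipped curve over 0-4 h after rhamnose induction (AUC4h), with ≥20 reads per time point. It is not background-subtracted; inactive controls average about 0.047.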

Some of the results follow. The full chains were built here from the parent and the listed change. Inactive controls read about 0.05.
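Also: Bxb1 expression induced with 0.2% (w/v) L-rhamnose at OD600 near 0.5, cultures sampled hourly, flipped fraction per protease–substrate barcode pair counted by paired-end Illumina sequencing.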

Consider MGESLFKGPRDYNPISSSICHLTNESDGHTTSLYGIGFGPFIITNKHLFRRNNGTLVVQSLHGVFKVKDTTTLQQHLVDGRDMIIIRMPKDFPPFPQKLKFHEPQREERICLVTTNFQTKSMSSMVSDTSCTFPSGDGIFWKHWIQTKDGQCGSPLVSTRDGFIVGIHSASNFTNTNNYFTSVPKNFMELLTNQEAQQWVSGWRLNADSVLWGGHKVFMVKPEEPFQPVKEATQL [R102H], for which the “area with substrate ENLYFQA” value amounted to 0.0409, the “area with substrate ENLYFQC” value came out at 0.0601, the “area with substrate ENLYFQF” value is 0.0466 and the “area with substrate ENLYFQG” value was determined as 0.0614. For the same variant, the “area with substrate ENLYFQH” value is 0.0473, the “area with substrate ENLYFQI” value was found to be 0.0546, the “area with substrate ENLYFQK” value is 0.0412 and the “area with substrate ENLYFQL” value turned out to be 0.0546. The “area with substrate ENLYFQN” value is 0.0452, the “area with substrate ENLYFQR” value was 0.0602, the “area with substrate ENLYFQS” value came to 0.0618 and the “area with substrate ENLYFQT” value was 0.0555. The “area with substrate ENLYFQW” value was determined as 0.0451.
MGESLFKGPRDYNPISSSICHLTNESDGHTTSLYGIGFGPFIITNKHLFRRNNGTLVVQSLHGVFKVKDTTTLQQHLVDGRDMIIIRMPKDFPPFPQKLKFREPQAEERICLVTTNFQTKSMSSMVSDTSCTFPSGDGIFWKHWIQTKDGQCGSPLVSTRDGFIVGIHSASNFTNTNNYFTSVPKNFMELLTNQEAQQWVSGWRLNADSVLWGGHKVFMVKPEEPFQPVKEATQL [R106A]: the “area with substrate ENLYFQA” value was found to be 0.0962, the “area with substrate ENLYFQC” value amounted to 0.126, the “area with substrate ENLYFQH” value was 0.0848 and the “area with substrate ENLYFQI” value worked out at 0.0643. For the same variant, the “area with substrate ENLYFQL” value was 0.0437, the “area with substrate ENLYFQM” value was 0.0885, the “area with substrate ENLYFQN” value was determined as 0.0871 and the “area with substrate ENLYFQP” value amounted to 0.0559. In addition, the “area with substrate ENLYFQR” value worked out at 0.065, the “area with substrate ENLYFQS” value came to 0.105, the “area with substrate ENLYFQT” value was 0.0681 and the “area with substrate ENLYFQV” value is 0.0724. The “area with substrate ENLYFQY” value is 0.0529.
On to MGESLFKGPRDYNPISSSICHLTNESDGHTTSLYGIGFGPFIITNKHLFRRNNGTLVVQSLHGVFKVKDTTTLQQHLVDGCDMIIIRMPKDFPPFPQKLKFREPQREERICLVTTNFQTKSMSSMVSDTSCTFPSGDGIFWKHWIQTKDGQCGSPLVSTRDGFIVGIHSASNFTNTNNYFTSVPKNFMELLTNQEAQQWVSGWRLNADSVLWGGHKVFMVKPEEPFQPVKEATQL [R81C], for which the “area with substrate ENLYFQA” value was 0.138, the “area with substrate ENLYFQC” value was 0.109, the “area with substrate ENLYFQD” value was 0.0613 and the “area with substrate ENLYFQF” value amounted to 0.0801. Moreover, the “area with substrate ENLYFQG” value was 0.0787, the “area with substrate ENLYFQH” value was found to be 0.0778, the “area with substrate ENLYFQI” value is 0.0578 and the “area with substrate ENLYFQK” value came to 0.0578. The “area with substrate ENLYFQL” value amounted to 0.057, the “area with substrate ENLYFQM” value stood at 0.0836, the “area with substrate ENLYFQN” value came to 0.0734 and the “area with substrate ENLYFQP” value came to 0.0512. Further, the “area with substrate ENLYFQR” value came out at 0.058, the “area with substrate ENLYFQS” value came out at 0.0966, the “area with substrate ENLYFQT” value is 0.0612 and the “area with substrate ENLYFQV” value stood at 0.0615. Also, the “area with substrate ENLYFQW” value was 0.0646 and the “area with substrate ENLYFQY” value came to 0.0634.
As for MGESLFKGPRDYNPISSSICHLTNESDGHTTSLYGIGFGPFIITNKHLFRRNNGTLVVQSLHGVFKVKDTTTLQQHLVDGRDMIIVRMPKDFPPFPQKLKFREPQREERICLVTTNFQTKSMSSMVSDTSCTFPSGDGIFWKHWIQTKDGQCGSPLVSTRDGFIVGIHSASNFTNTNNYFTSVPKNFMELLTNQEAQQWVSGWRLNADSVLWGGHKVFMVKPEEPFQPVKEATQL [I86V], the “area with substrate ENLYFQA” value was found to be 0.0967, the “area with substrate ENLYFQC” value was found to be 0.111, the “area with substrate ENLYFQD” value was 0.0894 and the “area with substrate ENLYFQI” value turned out to be 0.0493. The “area with substrate ENLYFQK” value is 0.0851, the “area with substrate ENLYFQL” value came to 0.0677, the “area with substrate ENLYFQM” value was 0.0898 and the “area with substrate ENLYFQN” value is 0.082. Besides, the “area with substrate ENLYFQP” value came to 0.0874, the “area with substrate ENLYFQR” value came out at 0.064, the “area with substrate ENLYFQS” value was determined as 0.106 and the “area with substrate ENLYFQT” value is 0.073. For the same variant, the “area with substrate ENLYFQV” value is 0.0639 and the “area with substrate ENLYFQW” value was 0.0572.
As to MGESLFKGPRDYNPISSSICHLTNESDGHTTSLYGIGFGPFIITNKHLFRRNNGTLVVQSLHGVFKVKDTTTLQQHLVDGRDMIIIRMPKDFMPFPQKLKFREPQREERICLVTTNFQTKSMSSMVSDTSCTFPSGDGIFWKHWIQTKDGQCGSPLVSTRDGFIVGIHSASNFTNTNNYFTSVPKNFMELLTNQEAQQWVSGWRLNADSVLWGGHKVFMVKPEEPFQPVKEATQL [P93M], the “area with substrate ENLYFQA” value was 0.0941, the “area with substrate ENLYFQC” value was 0.112, the “area with substrate ENLYFQE” value was determined as 0.0815 and the “area with substrate ENLYFQI” value came out at 0.0519. For the same variant, the “area with substrate ENLYFQL” value stood at 0.0604, the “area with substrate ENLYFQM” value stood at 0.107, the “area with substrate ENLYFQP” value stood at 0.0451 and the “area with substrate ENLYFQQ” value turned out to be 0.0742. For the same variant, the “area with substrate ENLYFQR” value was determined as 0.0554, the “area with substrate ENLYFQS” value was found to be 0.102, the “area with substrate ENLYFQT” value was determined as 0.0619 and the “area with substrate ENLYFQW” value worked out at 0.0662. Besides, the “area with substrate ENLYFQY” value was 0.0745.
With MGESLFKGPRDYNPISSSICHLTNESDGHTTSLYGIGFGPFIITNKHLFRRNNGTLVVQSLHGVFKVKDTTTLQQHLVDGRDMIIIRMPKDFPPFPQLLKFREPQREERICLVTTNFQTKSMSSMVSDTSCTFPSGDGIFWKHWIQTKDGQCGSPLVSTRDGFIVGIHSASNFTNTNNYFTSVPKNFMELLTNQEAQQWVSGWRLNADSVLWGGHKVFMVKPEEPFQPVKEATQL [K98L], the “area with substrate ENLYFQA” value turned out to be 0.0771, the “area with substrate ENLYFQD” value amounted to 0.0572, the “area with substrate ENLYFQI” value was 0.0464 and the “area with substrate ENLYFQL” value was 0.0686. For the same variant, the “area with substrate ENLYFQM” value amounted to 0.0646, the “area with substrate ENLYFQP” value was 0.0455, the “area with substrate ENLYFQQ” value is 0.0582 and the “area with substrate ENLYFQR” value was found to be 0.0628. Besides, the “area with substrate ENLYFQS” value amounted to 0.0988, the “area with substrate ENLYFQT” value came out at 0.0656, the “area with substrate ENLYFQV” value worked out at 0.0549 and the “area with substrate ENLYFQY” value is 0.0683.
As for MGESLFKGPRDYNPISSSICHLTNESDGHTTSLYGIGFGPFIITNKHLFRRNNGTLVVQSLHGVFKVKDTTTLQQHLVDGRDDIIIRMPKDFPPFPQKLKFREPQREERICLVTTNFQTKSMSSMVSDTSCTFPSGDGIFWKHWIQTKDGQCGSPLVSTRDGFIVGIHSASNFTNTNNYFTSVPKNFMELLTNQEAQQWVSGWRLNADSVLWGGHKVFMVKPEEPFQPVKEATQL [M83D], the “area with substrate ENLYFQA” value was 0.0356, the “area with substrate ENLYFQC” value is 0.0542, the “area with substrate ENLYFQD” value came out at 0.0467 and the “area with substrate ENLYFQE” value came out at 0.0548. Besides, the “area with substrate ENLYFQG” value worked out at 0.0686, the “area with substrate ENLYFQH” value stood at 0.0428, the “area with substrate ENLYFQI” value was found to be 0.059 and the “area with substrate ENLYFQK” value was 0.0494. Further, the “area with substrate ENLYFQL” value turned out to be 0.0474, the “area with substrate ENLYFQN” value turned out to be 0.0458, the “area with substrate ENLYFQR” value is 0.0481 and the “area with substrate ENLYFQS” value stood at 0.0532. The “area with substrate ENLYFQT” value worked out at 0.0515, the “area with substrate ENLYFQW” value is 0.0341 and the “area with substrate ENLYFQY” value came to 0.0624.
As to MGESLFKGPRDYNPISSSICHLTNESDGHTTSLYGIGFGPFIITNKHLFRRNNGTLVVQSLHGVFKVKDTTTLQQHLVDGRDMIIIRMPKDFPPFPQKLKFREPQREEIICLVTTNFQTKSMSSMVSDTSCTFPSGDGIFWKHWIQTKDGQCGSPLVSTRDGFIVGIHSASNFTNTNNYFTSVPKNFMELLTNQEAQQWVSGWRLNADSVLWGGHKVFMVKPEEPFQPVKEATQL [R109I], the “area with substrate ENLYFQA” value came to 0.079, the “area with substrate ENLYFQC” value worked out at 0.128, the “area with substrate ENLYFQD” value came out at 0.0693 and the “area with substrate ENLYFQE” value amounted to 0.0631. Further, the “area with substrate ENLYFQG” value is 0.0885, the “area with substrate ENLYFQH” value turned out to be 0.0774, the “area with substrate ENLYFQI” value amounted to 0.071 and the “area with substrate ENLYFQK” value is 0.0585. The “area with substrate ENLYFQL” value was found to be 0.0599, the “area with substrate ENLYFQM” value turned out to be 0.0865, the “area with substrate ENLYFQN” value was determined as 0.0635 and the “area with substrate ENLYFQQ” value is 0.076. In addition, the “area with substrate ENLYFQR” value was determined as 0.0694, the “area with substrate ENLYFQS” value was 0.0898, the “area with substrate ENLYFQT” value worked out at 0.0535 and the “area with substrate ENLYFQY” value was found to be 0.0812.
In the case of MGESLFKGPRDYNPISSSICHLTNESDGHTTSLYGIGFGPFIITNKHLFRRNNGTLVVQSLHGVFKVKDTTTLQQHLVDGRDMIIIRMPKDFPPFPQKLKFREPQREEGICLVTTNFQTKSMSSMVSDTSCTFPSGDGIFWKHWIQTKDGQCGSPLVSTRDGFIVGIHSASNFTNTNNYFTSVPKNFMELLTNQEAQQWVSGWRLNADSVLWGGHKVFMVKPEEPFQPVKEATQL [R109G], the “area with substrate ENLYFQA” value was 0.0861, the “area with substrate ENLYFQC” value was found to be 0.125, the “area with substrate ENLYFQD” value turned out to be 0.0745 and the “area with substrate ENLYFQG” value is 0.0858. For the same variant, the “area with substrate ENLYFQH” value came to 0.0842, the “area with substrate ENLYFQI” value is 0.0541, the “area with substrate ENLYFQL” value stood at 0.0436 and the “area with substrate ENLYFQN” value came to 0.0749. Besides, the “area with substrate ENLYFQP” value was 0.0599, the “area with substrate ENLYFQR” value was 0.0577, the “area with substrate ENLYFQS” value was 0.0935 and the “area with substrate ENLYFQV” value was found to be 0.068. Further, the “area with substrate ENLYFQW” value stood at 0.0713.
